This passage reports binding results from publication PMC7588443 (Nature Communications, 2020).

Amino acid sequences for entries named in this document (tags omitted). Residues count along the entry.
UniProt P03186, residues 1-1027: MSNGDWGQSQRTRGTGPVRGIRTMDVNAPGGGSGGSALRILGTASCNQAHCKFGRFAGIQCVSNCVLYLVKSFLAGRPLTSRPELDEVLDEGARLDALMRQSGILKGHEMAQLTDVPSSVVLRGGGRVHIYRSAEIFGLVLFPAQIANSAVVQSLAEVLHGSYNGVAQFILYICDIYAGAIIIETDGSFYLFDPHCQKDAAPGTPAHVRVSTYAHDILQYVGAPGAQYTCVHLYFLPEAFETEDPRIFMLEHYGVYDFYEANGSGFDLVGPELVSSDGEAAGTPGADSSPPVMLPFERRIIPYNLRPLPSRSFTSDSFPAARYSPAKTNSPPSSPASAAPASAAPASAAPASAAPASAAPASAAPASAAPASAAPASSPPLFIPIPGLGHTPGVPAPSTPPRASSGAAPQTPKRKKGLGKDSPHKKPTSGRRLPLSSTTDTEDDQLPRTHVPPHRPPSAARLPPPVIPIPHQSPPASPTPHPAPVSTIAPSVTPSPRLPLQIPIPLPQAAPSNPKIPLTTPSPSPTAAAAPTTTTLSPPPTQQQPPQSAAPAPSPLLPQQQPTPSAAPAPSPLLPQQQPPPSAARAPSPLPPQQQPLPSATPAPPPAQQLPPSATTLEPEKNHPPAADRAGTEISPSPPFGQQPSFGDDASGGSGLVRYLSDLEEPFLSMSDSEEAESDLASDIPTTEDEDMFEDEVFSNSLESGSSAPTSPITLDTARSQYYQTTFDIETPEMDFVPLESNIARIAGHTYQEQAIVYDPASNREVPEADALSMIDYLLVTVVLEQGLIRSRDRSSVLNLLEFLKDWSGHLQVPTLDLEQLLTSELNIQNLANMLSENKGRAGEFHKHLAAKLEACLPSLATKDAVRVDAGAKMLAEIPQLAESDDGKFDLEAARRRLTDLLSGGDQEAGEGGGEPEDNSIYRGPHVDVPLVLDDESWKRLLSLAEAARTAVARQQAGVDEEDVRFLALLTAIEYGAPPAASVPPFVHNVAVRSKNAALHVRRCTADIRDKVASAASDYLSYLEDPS
UniProt P06477, residues 19-838: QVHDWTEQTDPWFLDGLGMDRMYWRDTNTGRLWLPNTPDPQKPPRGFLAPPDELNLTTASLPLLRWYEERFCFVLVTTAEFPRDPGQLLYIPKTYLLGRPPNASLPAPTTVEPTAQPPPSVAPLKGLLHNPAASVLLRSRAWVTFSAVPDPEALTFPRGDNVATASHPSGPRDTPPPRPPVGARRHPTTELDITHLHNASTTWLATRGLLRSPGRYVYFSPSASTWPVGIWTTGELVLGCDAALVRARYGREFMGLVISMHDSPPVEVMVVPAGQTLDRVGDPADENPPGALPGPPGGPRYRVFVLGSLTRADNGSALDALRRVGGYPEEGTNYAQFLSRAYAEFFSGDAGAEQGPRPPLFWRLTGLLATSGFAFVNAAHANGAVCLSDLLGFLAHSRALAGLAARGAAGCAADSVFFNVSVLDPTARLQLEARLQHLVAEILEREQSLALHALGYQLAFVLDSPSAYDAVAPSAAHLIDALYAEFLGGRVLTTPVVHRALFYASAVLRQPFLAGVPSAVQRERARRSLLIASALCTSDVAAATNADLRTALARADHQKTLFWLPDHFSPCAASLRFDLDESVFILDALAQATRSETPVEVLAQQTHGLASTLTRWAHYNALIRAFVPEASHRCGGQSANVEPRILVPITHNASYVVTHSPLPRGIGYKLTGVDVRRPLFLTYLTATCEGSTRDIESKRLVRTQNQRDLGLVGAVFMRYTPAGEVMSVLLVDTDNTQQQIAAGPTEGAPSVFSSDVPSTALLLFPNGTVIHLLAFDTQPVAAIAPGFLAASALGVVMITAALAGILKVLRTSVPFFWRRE

Common to all, as to experiment: co-IP; transfected HEK293T cells; lysis buffer 25 mM Tris-HCl pH 7.4, 150 mM NaCl, 1 mM EDTA, 1% NP40, 5% glycerol; anti-Flag, anti-Myc or anti-HA beads overnight at 4 °C; Western blot
Assay [1] deals with T1, BBRF2Δ expressed in HEK293T cells (Epstein-Barr virus (human herpesvirus 4 strain M81)) (UniProt P29882).
T1 sequence: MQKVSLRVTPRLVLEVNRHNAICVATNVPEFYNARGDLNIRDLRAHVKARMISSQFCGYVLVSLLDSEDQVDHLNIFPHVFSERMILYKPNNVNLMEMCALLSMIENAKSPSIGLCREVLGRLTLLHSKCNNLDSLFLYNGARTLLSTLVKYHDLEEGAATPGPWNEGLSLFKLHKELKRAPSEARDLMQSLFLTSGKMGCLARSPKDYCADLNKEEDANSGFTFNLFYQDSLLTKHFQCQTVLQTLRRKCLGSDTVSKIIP

Assay [2] concerns the target T2, Myc-tagged BBRF2 (Epstein-Barr virus (human herpesvirus 4 strain M81)) (UniProt P29882).
T2 sequence: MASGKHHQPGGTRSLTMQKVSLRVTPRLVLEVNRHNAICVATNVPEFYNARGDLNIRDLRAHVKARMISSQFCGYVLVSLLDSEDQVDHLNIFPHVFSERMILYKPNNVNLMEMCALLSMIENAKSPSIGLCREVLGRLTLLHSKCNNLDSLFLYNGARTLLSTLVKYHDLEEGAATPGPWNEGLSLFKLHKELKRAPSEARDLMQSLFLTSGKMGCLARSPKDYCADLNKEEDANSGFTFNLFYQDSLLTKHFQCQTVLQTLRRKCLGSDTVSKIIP

Assay [3] has as its target T3, Flag-tagged BSRF1 (Epstein-Barr virus (human herpesvirus 4 strain M81)) (UniProt P0CK49).
T3 sequence: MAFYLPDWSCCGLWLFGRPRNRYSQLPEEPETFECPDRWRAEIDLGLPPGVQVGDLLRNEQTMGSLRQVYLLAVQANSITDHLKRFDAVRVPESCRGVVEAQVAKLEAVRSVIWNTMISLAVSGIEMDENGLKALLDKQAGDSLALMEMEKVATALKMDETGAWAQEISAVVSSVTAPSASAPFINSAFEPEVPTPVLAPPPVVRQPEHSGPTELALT

For assay [4], the target named is BPLF1_(1-1027) (Epstein-Barr virus) (UniProt P03186).
Assay [5] deals with T4, EBV MCP expressed in HEK293T cells (Epstein-Barr virus) (UniProt P03226).
T4 sequence: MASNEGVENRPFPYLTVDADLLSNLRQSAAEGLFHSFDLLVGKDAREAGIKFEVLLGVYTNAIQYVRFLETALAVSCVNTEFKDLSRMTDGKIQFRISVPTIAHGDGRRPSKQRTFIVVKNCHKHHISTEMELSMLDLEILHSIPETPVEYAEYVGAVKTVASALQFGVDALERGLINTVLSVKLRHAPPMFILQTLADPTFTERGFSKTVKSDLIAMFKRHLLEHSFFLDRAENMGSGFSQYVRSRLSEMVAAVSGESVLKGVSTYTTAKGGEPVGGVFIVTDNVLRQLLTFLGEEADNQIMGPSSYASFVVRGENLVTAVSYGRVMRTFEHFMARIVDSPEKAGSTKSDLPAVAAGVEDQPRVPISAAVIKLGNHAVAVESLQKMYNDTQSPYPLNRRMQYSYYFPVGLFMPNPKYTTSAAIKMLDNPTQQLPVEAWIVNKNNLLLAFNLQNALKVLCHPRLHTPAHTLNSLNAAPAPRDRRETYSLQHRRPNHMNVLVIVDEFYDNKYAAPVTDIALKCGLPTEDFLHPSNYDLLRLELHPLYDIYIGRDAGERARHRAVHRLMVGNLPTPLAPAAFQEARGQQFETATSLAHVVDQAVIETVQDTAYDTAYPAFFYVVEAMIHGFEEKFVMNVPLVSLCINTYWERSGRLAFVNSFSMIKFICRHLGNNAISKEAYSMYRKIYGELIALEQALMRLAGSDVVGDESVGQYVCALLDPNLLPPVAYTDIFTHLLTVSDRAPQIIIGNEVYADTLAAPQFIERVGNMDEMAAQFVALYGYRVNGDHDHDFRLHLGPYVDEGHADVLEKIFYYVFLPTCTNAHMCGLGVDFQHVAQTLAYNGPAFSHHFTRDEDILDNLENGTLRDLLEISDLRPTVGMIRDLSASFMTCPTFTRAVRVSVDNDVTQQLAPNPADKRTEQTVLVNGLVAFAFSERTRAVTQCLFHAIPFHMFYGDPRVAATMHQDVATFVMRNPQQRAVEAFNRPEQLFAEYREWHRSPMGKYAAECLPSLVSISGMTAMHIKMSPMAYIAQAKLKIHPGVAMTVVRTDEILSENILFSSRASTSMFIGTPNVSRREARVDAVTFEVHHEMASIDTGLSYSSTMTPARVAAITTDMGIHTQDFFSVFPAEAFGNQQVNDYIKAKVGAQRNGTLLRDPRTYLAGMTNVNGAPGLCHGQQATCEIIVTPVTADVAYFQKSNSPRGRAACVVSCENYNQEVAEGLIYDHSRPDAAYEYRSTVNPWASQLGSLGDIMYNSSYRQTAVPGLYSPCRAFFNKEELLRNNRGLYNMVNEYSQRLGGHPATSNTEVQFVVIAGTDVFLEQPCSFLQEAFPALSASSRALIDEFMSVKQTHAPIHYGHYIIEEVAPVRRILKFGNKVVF

These are yes or no findings as the source states them, for the method shown. Binding seen in cells or lysates may run through a third protein. Some results given as binding are weak or reduced against the parent protein; the word gives no strength. For part of these data: Sequences can lack the tags named with a protein.

As to “BPLF1_(1-1027) (from UniProt P03186 1-1027) (domain or fragment)”, the binding entry in assay [1] and in assay [2] was “binds” throughout.
Turning to HSV-1 gH (from UniProt P06477 19-838), the binding entry in assay [3] was “no binding”.

B1: Myc-tagged BBRF2 (protein, UniProt P29882 1-278)
chain: MASGKHHQPGGTRSLTMQKVSLRVTPRLVLEVNRHNAICVATNVPEFYNARGDLNIRDLRAHVKARMISSQFCGYVLVSLLDSEDQVDHLNIFPHVFSERMILYKPNNVNLMEMCALLSMIENAKSPSIGLCREVLGRLTLLHSKCNNLDSLFLYNGARTLLSTLVKYHDLEEGAATPGPWNEGLSLFKLHKELKRAPSEARDLMQSLFLTSGKMGCLARSPKDYCADLNKEEDANSGFTFNLFYQDSLLTKHFQCQTVLQTLRRKCLGSDTVSKIIP
Regarding B1, the binding result in assay [4] and in assay [5] was “binds” in each case.

B2: BBRF2Δ expressed in HEK293T cells (domain or fragment, UniProt P29882 17-278)
chain: MQKVSLRVTPRLVLEVNRHNAICVATNVPEFYNARGDLNIRDLRAHVKARMISSQFCGYVLVSLLDSEDQVDHLNIFPHVFSERMILYKPNNVNLMEMCALLSMIENAKSPSIGLCREVLGRLTLLHSKCNNLDSLFLYNGARTLLSTLVKYHDLEEGAATPGPWNEGLSLFKLHKELKRAPSEARDLMQSLFLTSGKMGCLARSPKDYCADLNKEEDANSGFTFNLFYQDSLLTKHFQCQTVLQTLRRKCLGSDTVSKIIP
With B2, the binding entry in assay [4] and in assay [5] was “binds” throughout.

B3: EBV MCP expressed in HEK293T cells (protein, UniProt P03226 1-1381)
chain: MASNEGVENRPFPYLTVDADLLSNLRQSAAEGLFHSFDLLVGKDAREAGIKFEVLLGVYTNAIQYVRFLETALAVSCVNTEFKDLSRMTDGKIQFRISVPTIAHGDGRRPSKQRTFIVVKNCHKHHISTEMELSMLDLEILHSIPETPVEYAEYVGAVKTVASALQFGVDALERGLINTVLSVKLRHAPPMFILQTLADPTFTERGFSKTVKSDLIAMFKRHLLEHSFFLDRAENMGSGFSQYVRSRLSEMVAAVSGESVLKGVSTYTTAKGGEPVGGVFIVTDNVLRQLLTFLGEEADNQIMGPSSYASFVVRGENLVTAVSYGRVMRTFEHFMARIVDSPEKAGSTKSDLPAVAAGVEDQPRVPISAAVIKLGNHAVAVESLQKMYNDTQSPYPLNRRMQYSYYFPVGLFMPNPKYTTSAAIKMLDNPTQQLPVEAWIVNKNNLLLAFNLQNALKVLCHPRLHTPAHTLNSLNAAPAPRDRRETYSLQHRRPNHMNVLVIVDEFYDNKYAAPVTDIALKCGLPTEDFLHPSNYDLLRLELHPLYDIYIGRDAGERARHRAVHRLMVGNLPTPLAPAAFQEARGQQFETATSLAHVVDQAVIETVQDTAYDTAYPAFFYVVEAMIHGFEEKFVMNVPLVSLCINTYWERSGRLAFVNSFSMIKFICRHLGNNAISKEAYSMYRKIYGELIALEQALMRLAGSDVVGDESVGQYVCALLDPNLLPPVAYTDIFTHLLTVSDRAPQIIIGNEVYADTLAAPQFIERVGNMDEMAAQFVALYGYRVNGDHDHDFRLHLGPYVDEGHADVLEKIFYYVFLPTCTNAHMCGLGVDFQHVAQTLAYNGPAFSHHFTRDEDILDNLENGTLRDLLEISDLRPTVGMIRDLSASFMTCPTFTRAVRVSVDNDVTQQLAPNPADKRTEQTVLVNGLVAFAFSERTRAVTQCLFHAIPFHMFYGDPRVAATMHQDVATFVMRNPQQRAVEAFNRPEQLFAEYREWHRSPMGKYAAECLPSLVSISGMTAMHIKMSPMAYIAQAKLKIHPGVAMTVVRTDEILSENILFSSRASTSMFIGTPNVSRREARVDAVTFEVHHEMASIDTGLSYSSTMTPARVAAITTDMGIHTQDFFSVFPAEAFGNQQVNDYIKAKVGAQRNGTLLRDPRTYLAGMTNVNGAPGLCHGQQATCEIIVTPVTADVAYFQKSNSPRGRAACVVSCENYNQEVAEGLIYDHSRPDAAYEYRSTVNPWASQLGSLGDIMYNSSYRQTAVPGLYSPCRAFFNKEELLRNNRGLYNMVNEYSQRLGGHPATSNTEVQFVVIAGTDVFLEQPCSFLQEAFPALSASSRALIDEFMSVKQTHAPIHYGHYIIEEVAPVRRILKFGNKVVF
With B3, the binding entry in assay [1] and in assay [2] was “binds” each time.
